Measured values published in patent US20150250167A1, “COMPOSITION FOR NOXIOUS ORGANISMS-CONTROLLING AGENT AND METHOD FOR USING THE SAME” (priority 2001, published 2015).

How the values were obtained:
[1] = system: Diamondback Moth (Plutella xyloxtella); test: Control of diamondback moth on cabbage by soil treatment, number of parasitic insects; format: in vivo; conditions: 5 mg ai/hill, 21 days after transplanting
[2] = system: Resistant Strain of Two-Spotted Spider Mite; conditions: 100 ppm, single agent, 2 days after spraying
[3] = system: Barnyard Grass (Echinochloa crus-Galli); test: Herbicidal effect on barnyard grass by submerged application to main paddyfield; format: in vivo; set-up: key: 0 means “no effect”; 10 means “complete withering”; conditions: 10.0 g ai/10a; four weeks after the treatment
rice plant = conditions: 10.0 g ai/10a; four weeks after the treatment
[4] = system: Brown Rice Planthopper (Nilaparvata lugens); test: Insecticidal test on brown rice planthopper, rice seedling dipping; format: in vivo; conditions: 100 ppm, single agent
[5] = system: Rice Leafroller (Cnaphalocrocis medinalis); test: Control of rice leafroller by submerged application to main paddyfield, percentage of injured leaves; format: in vivo; conditions: 10.0 g ai/10a
Rice Blast [6] = format: in vivo; conditions: 10.0 g ai/10a; submerged application
[7] = system: Bulrush (Scirpus juncoides Roxb.); test: Herbicidal effect on bulrush by submerged application to main paddyfield; format: in vivo; set-up: key: 0 means “no effect”; 10 means “complete withering”; conditions: 10.0 g ai/10a; four weeks after the treatment
Rice Blast [8] = format: in vivo; conditions: 0.5 g ai/Box, single agent
[9] = system: Rice Leafroller (Cnaphalocrosis medinalis); test: Control of rice leafroller on paddyfield rice by nursery box application, number of injured leaves; format: in vivo; conditions: 0.5 g ai/Box, single agent
Cutworm = test: Test for the effect against cutworm on beet, drench, number of injured hills per 100 hills; format: in vivo; conditions: 15 g ai/10a
[10] = system: Citrus Yellow Thrips (Frankliniella occidentalis); test: Control of citrus yellow thrips on egg plant by combined use with natural enemy pesticide, number of thrips; format: in vivo; conditions: 100 ppm, spray
[11] = system: Rice Water Weevil (Lissorhoptrus oryzophilus); test: Control of rice water weevil on paddyfield rice by nursery box application, extent of injury; format: in vivo; conditions: 0.5 g ai/Box, single agent
Aphid = test: Control of aphid on cabbage by soil treatment, number of parasitic insects; format: in vivo; conditions: 5 mg ai/hill, 21 days after transplanting
[12] = system: Southern Root-Knot Nematode (Meloidogyne incognita); test: Test for the effect on southern root-knot nematode, soil blending with granular preparation; format: in vivo; conditions: 300 g ai/10a, single agent, 60 days after treatment
[13] = system: Small Brown Planthopper (Laodelphax striatellus); test: Control of small brown planthopper on paddyfield rice by nursery box application, number of parasitic insects; format: in vivo; conditions: 0.5 g ai/Box, single agent
[14] = system: Green Peach Aphid (Myzus persicae); test: Insecticidal test on green peach aphid, spraying of Chinese cabbage, control value; format: in vivo; conditions: Myzus persicae, 144 h, single agent, 6 days after spraying, read-out: Control degree (%)
[15] = system: Smaller Tea Tortrix (Adoxophyes orana fosciota); test: Insecticidal test on smaller tea tortrix, tea leaf dipping; format: in vivo; conditions: Adoxophyes orana, foliar, single agent 0.1 ppm, 4th instar larvae, 25° C.
[16] = true leaf extraction season treatment

SMILES: Cc1cc(C(F)(C(F)(F)F)C(F)(F)F)ccc1NC(=O)c1cccc(I)c1C(=O)NC(C)(C)CS(C)(=O)=O [Compound 130, N^2-(1,1-dimethyl-2-methylsulfonylethyl)-3-iodo-N^1-{2-methyl-4-[1,2,2,2-tetrafluoro-1-(trifluoromethyl)ethyl]-phenyl}phthalamide]
- Number of parasitic insects per 30 hills, Diamondback moth ([1]; plant foot treatment): 1
- Number of parasitic insects per 30 hills, Diamondback moth ([1]; pre-transplanting treatment): 1
- Number of parasitic insects per 30 hills, Diamondback moth ([1]; pricking-in hole treatment): 2
- Number of parasitic insects per 30 hills, Diamondback moth ([1]; soil incorporation): 1
- Number of parasitic insects per 30 hills, Diamondback moth [1, 16]: 1
- Death rate (%) [2]: 10%
- Herbicidal effect barnyard grass [3]: 0
- Phytotoxicity rice (rice plant): 0
- Death rate (%) After 1 days ([4]; after 1 day): 0%
- Death rate (%) After 5 days ([4]; after 5 days): 0%
- Percentage of injured leaves (%) After 50 days [5]: 0.13%
- Areal rate of disease spot (%) After 60 days (Rice Blast [6]): 7.9%
- Herbicidal effect fulrush [7]: 0
- Areal rate of disease spot (%) After 60 days (Rice Blast [8]): 8.3%
- Percentage of injured leaves (%) After 50 days [9]: 0.16%
- Number of injured hills per 100 hills, After 60 days (Cutworm): 0
- Number of injured hills per 100 hills, After 90 days (Cutworm): 7
- Number of injured hills per 100 hills, After 120 days (Cutworm): 19
- Number of parasitic insects per 20 leaves, After 60 days [10]: 21
- Number of parasitic insects per 20 leaves, After 90 days [10]: 28
- Number of parasitic insects per 20 leaves, After 120 days [10]: 50
- Extent of injury After 21 days [11]: 39.0
- Number of parasitic insects per 30 hills, Aphid (Aphid; plant foot treatment): 498
- Number of parasitic insects per 30 hills, Aphid (Aphid; pre-transplanting treatment): 421
- Number of parasitic insects per 30 hills, Aphid (Aphid; pricking-in hole treatment): 467
- Number of parasitic insects per 30 hills, Aphid (Aphid; soil incorporation): 453
- Number of parasitic insects per 30 hills, Aphid (Aphid; [16]): 399
- Number of nematodes per 25 g of soil sample [12]: 40
- Number of parasitic planthoppers per 30 hills After 40 days ([13]; after 40 days): 331
- Number of parasitic planthoppers per 30 hills After 60 days ([13]; after 60 days): 382
- pest or weed control at 100 ppm [14]: 10%
- pest or weed control at 0.1 ppm ([15]; 96 h, read-out: Death rate (%) After 4 days): 10%
- pest or weed control at 0.1 ppm ([15]; 168 h, read-out: Death rate (%) After 7 days): 25%

Where two headings read alike, the source gives them in different places.
